Measurements: PubChem BioAssay (NCATS)
Inconclusive means that the source gave no clear call. Such entries were picked first, then a sample of the others. No potency is given beside an inconclusive call; the fits are too rough. The source made the active and inactive calls. The call rests on the fitted dose curve; in most records, active means well fitted inhibition curve with a large enough effect; inconclusive means small, poorly fitted or top-dose-only effect; inactive means no such curve, though single readings can be large or run the other way.

These compounds were tested against Rap guanine nucleotide exchange factor 3 (Homo sapiens) (UniProt O95398) (assay: Confirmatory qHTS for antagonist of cAMP-regulated guanine nucleotide exchange factor 3 (EPAC1) (AID 1645880; further: nearly all actives have a fitted effect of over 55% in size;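 on activity, negative = inhibition: plate controls were DMSO only for no effect and full effect of the ATA control for full effect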)). Settings: EPAC1 Rap1B-BODIPY-GDP exchange, fluorescence; activity, negative = inhibition: at 115 µM (top of the series).
Chain of UniProt O95398 (O95398 whole entry, looked up): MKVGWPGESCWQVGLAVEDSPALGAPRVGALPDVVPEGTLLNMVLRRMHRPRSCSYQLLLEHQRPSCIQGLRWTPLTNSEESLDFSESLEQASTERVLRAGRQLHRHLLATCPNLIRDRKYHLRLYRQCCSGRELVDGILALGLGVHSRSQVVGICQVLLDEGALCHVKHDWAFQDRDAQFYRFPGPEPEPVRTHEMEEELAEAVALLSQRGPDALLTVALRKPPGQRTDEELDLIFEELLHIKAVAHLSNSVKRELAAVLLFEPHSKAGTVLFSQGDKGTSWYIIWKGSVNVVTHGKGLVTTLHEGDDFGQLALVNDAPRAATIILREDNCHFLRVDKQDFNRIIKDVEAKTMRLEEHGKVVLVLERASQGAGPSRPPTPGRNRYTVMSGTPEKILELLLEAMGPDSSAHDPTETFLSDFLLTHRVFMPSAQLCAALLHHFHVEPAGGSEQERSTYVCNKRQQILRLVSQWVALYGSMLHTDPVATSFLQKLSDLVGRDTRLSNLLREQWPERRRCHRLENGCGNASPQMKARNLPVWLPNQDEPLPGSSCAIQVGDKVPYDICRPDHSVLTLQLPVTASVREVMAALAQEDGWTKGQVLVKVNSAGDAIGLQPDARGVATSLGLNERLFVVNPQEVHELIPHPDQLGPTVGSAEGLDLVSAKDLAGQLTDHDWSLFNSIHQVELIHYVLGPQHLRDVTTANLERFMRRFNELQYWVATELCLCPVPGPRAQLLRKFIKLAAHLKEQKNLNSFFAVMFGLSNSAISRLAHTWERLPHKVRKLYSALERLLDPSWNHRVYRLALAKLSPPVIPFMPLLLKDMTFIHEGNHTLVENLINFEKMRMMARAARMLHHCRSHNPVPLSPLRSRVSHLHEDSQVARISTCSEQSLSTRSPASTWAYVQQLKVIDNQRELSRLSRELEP
How it was run: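 Nucleotide exchange uses 100 nM EPAC1, 250 nM RAP1B-BODIPY-GDP and 50 uM GDP, with compounds in a concentration-titration series. After 5 min at room temperature, fluorescence (480 nm ex/540 nm em) is read every 5 min for 30 min. Data are normalized to control ATA and DMSO.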
Potency means the concentration at half of the fitted maximal effect; tags describe the fitted curve by direction and shape.

| SMILES | activity, negative = inhibition | Potency |
| --- | --- | --- |
| Cc1ccc(CNC(=O)COc2ccc(C(=O)c3ccc(F)cc3)cc2)cc1 | inactive: -15.7% |  |
| O=C(NNc1c2ccccc2nc2ccccc12)c1ccccc1O |  | inconclusive [inhibitor, partial curve] |
| CCOC(=O)c1ccc(-c2ccc(/C=C(\C#N)C(=O)Nc3c(C)cccc3Cl)o2)cc1 |  | active: 75.7 µM |
| CCC(=O)N(CCC1(c2ccccc2OC)CCOC(C(C)C)C1)Cc1ccco1 (stereo not given) |  | inconclusive [inhibitor, partial curve, poor fit] |
| Cn1ccc2c(-c3ccc(C(C)(C)C)cc3)cc3c(c21)C1CCC3O1 (stereo not given) |  | inconclusive [inhibitor, partial curve] |
| O=C1NN(c2cccc(Br)c2)C(=O)/C1=C\c1ccccc1 |  | active: 33.8 µM |
| CC[C@@H]1CC=C[C@H]2[C@H]1C(=O)N(Cc1ccccc1)[C@H]2c1ccc(C(F)(F)F)cc1 |  | inconclusive [inhibitor, partial curve] |
| OC(c1cc(F)cc(Cl)c1)c1ncc(-c2cccc(C(F)(F)F)c2)[nH]1 (stereo not given) |  | inconclusive [inhibitor, partial curve] |
| C/C(=N\O)C(=O)OC1CC(C)CCC1C(C)C (stereo not given) |  | inconclusive [inhibitor, partial curve, poor fit] |
| O=C(CSc1nccn1Cc1ccc(Cl)cc1)Nc1ccc2c(c1)OCO2 |  | inconclusive [inhibitor, partial curve] |
| CCOc1cc(/C=C/C(=O)OCC(=O)NCc2ccco2)cc(Cl)c1OC |  | inconclusive [inhibitor, partial curve] |
| COC(=O)c1ccc2nc(-c3ccco3)c(Cc3ccc(OC)cc3C)n2c1 |  | inconclusive [inhibitor, partial curve] |
| COc1ccc(CNC(=O)[C@@H]2CC=C[C@@H]3CCN(Cc4ccccc4)C(=O)[C@@H]32)cc1 | inactive: -11.9% |  |
| CC1=C(C(=O)OC2CCCCCC2)C(c2c(Cl)cccc2Cl)CC(=O)N1 (stereo not given) |  | inconclusive [inhibitor, partial curve, poor fit] |
| O=C(O)c1ccc(N/N=C/c2cn(Cc3ccccc3F)c3ccccc23)cc1 |  | inconclusive [inhibitor, partial curve] |
| Cc1ccc2c(c1)c1c(c(=O)n(-c3cccc(Cl)c3)c(=O)n1C)n2C | inactive: -31.8% |  |
| COc1cccc(OCc2cc(/C=N/Nc3ccc(C(=O)O)cc3)ccc2OC)c1 |  | inconclusive [inhibitor, partial curve] |
| Cc1ccc(C2N(c3ccc(Cl)cc3)C(=O)N3CCCN23)cc1 (stereo not given) | inactive: -17.3% |  |
| O=C(NCc1ccc(F)cc1)C(c1cccnc1)N(C(=O)c1csnn1)c1ccccc1 (stereo not given) | inactive: -2.97% |  |
| C=CCc1ccccc1OCCSc1nc(-c2ccc(C(C)(C)C)cc2)nc2cc(=O)[nH]n12 |  | inconclusive [inhibitor, partial curve] |
| O=C(N/N=C/c1ccc(O)c([N+](=O)[O-])c1)C1CC1(c1ccccc1)c1ccccc1 (stereo not given) |  | inconclusive [inhibitor, partial curve, poor fit] |
| C/C(=N\NC(=O)C1CC1)c1cccs1 | inactive: -16.4% |  |
| COC(=O)c1ccccc1NC(=S)NC(=O)c1ccc(C)cc1 |  | inconclusive [inhibitor, partial curve] |
| CCC(=O)N(CCC(c1ccc(C)cc1)c1ccco1)Cc1ccco1 (stereo not given) |  | inconclusive [inhibitor, partial curve] |
| Cc1ccc(NC2c3ncccc3C(=O)N2Cc2cccs2)cc1 (stereo not given) |  | inconclusive [inhibitor, full curve] |
| COc1cc(CN(C)CC2CCCN(CCc3ccccc3F)C2)cc(Cl)c1OC (stereo not given) |  | inconclusive [inhibitor, partial curve, poor fit] |
| CS(=O)(=O)c1ccc(C(=O)OCc2nnc(-c3ccccc3)o2)cc1[N+](=O)[O-] |  | inconclusive [inhibitor, partial curve] |
| Cc1ccc(S(=O)(=O)N2[C@@H](c3ccc(Cl)cc3)C(C(=O)O)=CC[C@H]2c2ccc(Cl)c(Cl)c2)cc1 |  | active: 75.7 µM |
| O=c1cc(-c2ccc(O)c(O)c2)oc2cc(OC3OC(CO)C(O)C(O)C3O)cc(O)c12 (stereo not given) |  | active: 7.03 µM |
| COc1ccc(/C=C2\SC(=S)N(NS(=O)(=O)c3ccc(C)cc3)C2=O)c(OC)c1 |  | active: 14.1 µM |
